Laboratory results from PubChem BioAssay (NCI).
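Method: 48-hour compound exposure of cells in 96-well plates, five concentrations, linear interpolation of endpoints. Here, GI50 denotes the concentration required for 50% inhibition of growth. TGI: total growth inhibition.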

System: NCI-H322M lung
Assay: NCI tumour cell line growth inhibition, 48 h

Question: How did the GI50 turn out when `N#Cc1cnc2ccc(-c3cnc4n[nH]nc4c3)cc2c1N1CCc2cc(F)c(Cl)cc21` was run?
Answer: 3.41 µM

Question: What about the TGI of the same molecule?
Answer: 41.9 µM

Question: How did the GI50 turn out when `CCN1C(=O)N(CC)C2SC(N/N=C/c3ccccc3F)=NC21` (stereo not drawn) was run?
Answer: 1.16 µM

Question: What about the TGI of the same molecule?
Answer: > 100 µM

Question: Which results are given for `C=C(C=O)[C@@H]1CC[C@]2(COC(C)=O)CC[C@]3(C)C(CC[C@@H]4[C@@]5(C)CC[C@H](OC(C)=O)C(C)(C)[C@@H]5CC[C@]43C)[C@@H]12` (stereo partly drawn)?
Answer: GI50: > 100 µM; TGI: > 100 µM

Question: How did the GI50 turn out when `CC(C)(C)Nc1nc2c(OCCc3ccccc3)cccn2c1-c1ccc(Cl)cc1` was run?
Answer: 21.6 µM

Question: And the TGI?
Answer: > 100 µM
